The campaign covered roughly 220,000 compounds. About 5,700 (2.6%) were called active. Inconclusive means that the source gave no clear call. Such entries were picked first, then a sample of the others. Calls come from the whole dose curve; as a rule, active = well fitted inhibition curve with a large enough effect; inconclusive = small, poorly fitted or top-dose-only effect; inactive = no such curve, though single readings can be large or run the other way. Where the call is inconclusive, the potency comes from a doubtful curve fit.
These compounds were tested against Lysine-specific demethylase 5B (Homo sapiens) (UniProt Q9UGL1) (assay: Primary screen for KDM5B Histone Demethylases FDH-coupled qHTS). Conditions: FDH-coupled NADH fluorescence (FDH is formaldehyde dehydrogenase); series mostly up to 57.7 µM.
Sequence of UniProt Q9UGL1 (Q9UGL1 whole entry, looked up): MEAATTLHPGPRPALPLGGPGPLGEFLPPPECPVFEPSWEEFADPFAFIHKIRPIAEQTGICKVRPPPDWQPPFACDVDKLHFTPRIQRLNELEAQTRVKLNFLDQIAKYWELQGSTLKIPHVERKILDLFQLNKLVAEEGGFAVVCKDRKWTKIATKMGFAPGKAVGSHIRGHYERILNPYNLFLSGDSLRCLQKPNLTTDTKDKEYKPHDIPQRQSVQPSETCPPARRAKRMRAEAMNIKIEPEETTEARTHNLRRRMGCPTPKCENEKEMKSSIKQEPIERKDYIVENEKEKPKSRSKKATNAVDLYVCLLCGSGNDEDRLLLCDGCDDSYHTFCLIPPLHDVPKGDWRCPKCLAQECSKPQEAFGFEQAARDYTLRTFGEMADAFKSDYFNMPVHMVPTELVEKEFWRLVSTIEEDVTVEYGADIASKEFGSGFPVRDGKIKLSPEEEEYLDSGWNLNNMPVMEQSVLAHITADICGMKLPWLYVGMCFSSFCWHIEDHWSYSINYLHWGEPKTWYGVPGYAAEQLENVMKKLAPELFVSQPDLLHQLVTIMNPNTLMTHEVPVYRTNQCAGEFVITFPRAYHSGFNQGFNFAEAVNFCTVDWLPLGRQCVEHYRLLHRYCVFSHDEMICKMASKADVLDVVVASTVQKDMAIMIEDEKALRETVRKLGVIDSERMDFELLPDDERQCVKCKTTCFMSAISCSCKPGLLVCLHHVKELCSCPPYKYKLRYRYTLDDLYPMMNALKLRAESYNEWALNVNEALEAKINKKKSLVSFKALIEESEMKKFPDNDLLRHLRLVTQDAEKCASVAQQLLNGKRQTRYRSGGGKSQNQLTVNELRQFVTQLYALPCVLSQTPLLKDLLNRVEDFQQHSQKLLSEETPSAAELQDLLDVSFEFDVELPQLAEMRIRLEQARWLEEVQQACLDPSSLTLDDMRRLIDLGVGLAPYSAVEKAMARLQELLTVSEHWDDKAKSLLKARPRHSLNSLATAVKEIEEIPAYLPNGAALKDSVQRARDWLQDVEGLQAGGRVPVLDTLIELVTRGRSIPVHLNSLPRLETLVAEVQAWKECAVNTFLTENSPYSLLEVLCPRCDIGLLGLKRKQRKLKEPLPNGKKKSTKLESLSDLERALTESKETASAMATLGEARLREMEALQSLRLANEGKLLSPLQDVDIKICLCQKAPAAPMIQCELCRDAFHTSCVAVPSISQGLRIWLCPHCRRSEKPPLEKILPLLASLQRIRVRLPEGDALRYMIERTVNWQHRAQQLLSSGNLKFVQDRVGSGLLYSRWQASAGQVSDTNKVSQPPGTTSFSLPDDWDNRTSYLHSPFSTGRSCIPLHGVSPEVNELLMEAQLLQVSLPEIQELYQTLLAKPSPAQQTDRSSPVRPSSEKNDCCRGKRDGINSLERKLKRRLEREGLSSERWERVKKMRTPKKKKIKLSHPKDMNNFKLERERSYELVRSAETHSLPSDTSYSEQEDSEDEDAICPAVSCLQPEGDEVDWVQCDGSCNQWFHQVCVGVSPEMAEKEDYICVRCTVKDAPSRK
Summary of the method: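 Compound dilutions met 200 nM (final) KDM5BΔAP for 10 min at room temperature before substrate addition. The substrate mix held 12.5 µM H3K4me3 with cofactors 25 µM α-ketoglutarate and 50 µM Fe²⁺. NADH signal gain over 30 min defined activity.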
Note: nearly all actives have a fitted effect of over 70% in size.
Potency is the fitted concentration of half-maximal effect; tags give direction and shape of the fitted curve.

How did the Potency turn out when `CC(C)CCNC(=O)c1cnc2c(c1)N([S+](=O)([O-])c1cccnc1)CCC2` was run?
The Potency was inconclusive: 50.1 µM [inhibitor, single point].

How did the Potency turn out when `C[S+](=O)([O-])c1cccc(NC(=O)Cc2c[nH]c3ncc(-c4ccccc4)cc23)c1` was run?
The Potency was active: 31.6 µM.

With `CCCNc1c(NC(=O)c2ccccc2OCC)c(=O)oc2ccccc12` as the compound, how does the Potency read?
The Potency was “inactive”.

How did the Potency turn out when `COc1ccc(OC)c(NC(=O)C2CC(/C=C/c3ccccc3)=NO2)c1` (configuration not stated) was run?
The Potency was inconclusive: 39.8 µM [inhibitor, single point].

Which Potency does the source give for `O=C(CCCCCn1c(=O)[nH]c2ccccc2c1=O)N1CCN(c2ccc(Cl)cc2)CC1` here?
The Potency was inconclusive: 3.55 µM [inhibitor, full curve, poor fit].

With `CCC1CN(c2ccc(-c3nc(-c4ccc(OC)cc4)no3)cn2)CCN1C` (configuration not stated) as the compound, how does the Potency read?
The Potency was inconclusive: 31.6 µM [inhibitor, partial curve, poor fit].

`COCCn1c(SCC(=O)c2ccc3c(c2)OCO3)nc2cc(C(=O)NC(C)C)ccc2c1=O` was tested. Which Potency did it give?
The Potency was “inactive”.

With `c1cn2c(NC3CCCCC3)c(-c3ccc(N4CCOCC4)cc3)nc2cn1` as the compound, how does the Potency read?
Its Potency is “inactive”.

`Cc1ccc(NCC(=O)N=Nc2c(O)[nH]c3ccc([N+](=O)[O-])cc23)cc1` was tested. Which Potency did it give?
The Potency was inconclusive: 25.1 µM [inhibitor, partial curve, poor fit].

With `COCCCNc1nc2c(S(=O)(=O)c3ccc(C(C)C)cc3)nnn2c2ccccc12` as the compound, how does the Potency read?
Its Potency is inconclusive: 3.55 µM [inhibitor, partial curve, poor fit].

With `CC(C)c1ccc(NC(=O)CSC2=Nc3ccccc3C3=NC(CCC(=O)NCc4ccc(F)cc4)C(=O)N23)cc1` (configuration not stated) as the compound, how does the Potency read?
The Potency was inconclusive: 2.82 µM [inhibitor, full curve, poor fit].

For `COc1ccc(-c2nc(C)c(CCNC(=O)c3ccco3)s2)cc1`, which Potency is on record?
Its Potency is inconclusive: 25.1 µM [inhibitor, partial curve, poor fit].

For `CCCC(C)N1CC2(CCN(C(=O)c3ccc(C(C)=O)s3)CC2)OC1=O` (configuration not stated), which Potency is on record?
Its Potency is “inactive”.

How did the Potency turn out when `Cc1cccc(C2CC(=O)c3cnn(-c4nc5ccccc5[nH]4)c3C2)c1` (configuration not stated) was run?
The Potency was “inactive”.

Which Potency does the source give for `CC(C)N1C[C@H](O)C[C@H]1c1nnc2n1CCN(C(=O)c1ccccc1F)C2` here?
Its Potency is inconclusive: 22.4 µM [inhibitor, partial curve, poor fit].

`COc1cc(/C=C/c2nc3ccccc3c(=O)[nH]2)ccc1OC(F)F` was tested. Which Potency did it give?
Its Potency is inconclusive: 1.78 µM [inhibitor, partial curve, poor fit].

With `O=C1NCCN2CC3(CCN(C(=O)Nc4ccc5c(c4)OCCO5)CC3)CC12` (configuration not stated) as the compound, how does the Potency read?
Its Potency is active: 25.1 µM.

`Cc1nc(CNc2ncc(S(C)(=O)=O)c(C3CCCNC3)n2)sc1C` (configuration not stated) was tested. Which Potency did it give?
Its Potency is inconclusive: 22.4 µM [inhibitor, single point].

Which Potency does the source give for `COc1ccc(CCC(=O)N2CCCC2c2nc(C3CCOCC3)no2)cc1` (configuration not stated) here?
The Potency was inconclusive: 35.5 µM [inhibitor, single point].

How did the Potency turn out when `CC(=O)Nc1ccc(NC(=O)CSc2cn(CC(=O)N(C(C)C)C(C)C)c3ccccc23)cc1` was run?
Its Potency is inconclusive: 31.6 µM [inhibitor, single point].

Which Potency does the source give for `CCc1ccc(NC(=O)c2ccc3c(c2)NC(=O)CS3)cc1` here?
Its Potency is inconclusive: 39.8 µM [inhibitor, single point].

`O=C(Cn1ccn2nc(-c3ccccc3)c(CO)c2c1=O)Nc1ccc(Cl)cc1F` was tested. Which Potency did it give?
The Potency was inconclusive: 39.8 µM [inhibitor, single point].

How did the Potency turn out when `COc1ccc(C2=CC(c3ccc(OC)c(OC)c3)n3nnnc3N2)cc1` (configuration not stated) was run?
Its Potency is inconclusive: 28.2 µM [inhibitor, partial curve, poor fit].

How did the Potency turn out when `CS(=O)(=O)N1CCOc2ccc(CCC(=O)N3CCCCC3)cc2C1` was run?
Its Potency is “inactive”.

For `COCCN1C(=O)[C@@H]2C[C@@H](CN2Cc2cccnc2)Oc2ccccc21`, which Potency is on record?
The Potency was inconclusive: 35.5 µM [inhibitor, partial curve, poor fit].

For `CCCCc1ccc(NC(=O)CN2C(=O)C(c3ccccc3)=NC23CCCC3)cc1`, which Potency is on record?
Its Potency is inconclusive: 3.16 µM [inhibitor, partial curve, poor fit].

Which Potency does the source give for `O=C(CS(=O)(=O)Cc1ccccc1C(F)(F)F)Nc1ccc(F)cc1F` here?
The Potency was “inactive”.

How did the Potency turn out when `N#Cc1nc(-c2ccco2)oc1NCCN1CCOCC1` was run?
The Potency was inconclusive: 31.6 µM [inhibitor, partial curve, poor fit].

With `COc1ccc(CNc2nc(-c3ccco3)nn2S(=O)(=O)c2ccc3ccccc3c2)cc1OC` as the compound, how does the Potency read?
The Potency was inconclusive: 17.8 µM [inhibitor, single point].

How did the Potency turn out when `Cc1cc(C)n2nc(NCc3ccccc3Cl)nc2n1` was run?
Its Potency is inconclusive: 31.6 µM [inhibitor, partial curve, poor fit].

`O=C(c1cc(C2CC2)nc2onc(C3CCNCC3)c12)N1CCCCC1` was tested. Which Potency did it give?
Its Potency is “inactive”.

Which Potency does the source give for `COc1cccc(-c2cc3c(=O)n(CCNC(=O)COc4cccc(C)c4)ccn3n2)c1` here?
Its Potency is inconclusive: 22.4 µM [inhibitor, single point].

`N#Cc1ccc(S(=O)(=O)Nc2ccc3ccccc3n2)cc1` was tested. Which Potency did it give?
The Potency was inconclusive: 39.8 µM [inhibitor, single point].

Which Potency does the source give for `CCOc1cccc(CNCc2cccnc2)c1OCc1ccc(C)cc1` here?
The Potency was “inactive”.

Which Potency does the source give for `O=C(Cc1cccc(F)c1)N1CCC(c2nc(C3CCOCC3)no2)CC1` here?
Its Potency is “inactive”.

For `COC(=O)C1=C(C)NC(=O)CC1c1c(F)cccc1Cl` (configuration not stated), which Potency is on record?
Its Potency is “inactive”.

How did the Potency turn out when `Cc1cccc(-c2cn[nH]c2C2CCN(C(=O)c3ccc4nccnc4c3)CC2)c1` was run?
The Potency was inconclusive: 0.631 µM [inhibitor, partial curve, poor fit].

Which Potency does the source give for `CCOc1cccc(/C=C2/Cc3c(O)cccc3C2=O)c1` here?
The Potency was “inactive”.

For `Cc1ccc2cc(CCC(=O)NCCN3CCN(C)CC3)c(=O)[nH]c2c1`, which Potency is on record?
Its Potency is inconclusive: 31.6 µM [inhibitor, single point].

For `CCN(CC)Cc1ccc(CNC(=O)c2cnn(-c3ccccc3)c2)cc1`, which Potency is on record?
Its Potency is “inactive”.

For `N#Cc1ccc(NC(=O)Nc2ccc(Oc3ccc(NC(=O)Nc4ccc(C#N)cc4)cc3)cc2)cc1`, which Potency is on record?
Its Potency is inconclusive: 39.8 µM [inhibitor, partial curve, poor fit].

With `Cc1ccc(-c2cc(N3CCCN(C(=O)c4sccc4C)CC3)n[nH]2)cc1C` as the compound, how does the Potency read?
The Potency was inconclusive: 14.1 µM [inhibitor, single point].

Reference: PubChem BioAssay AID1347165 (National Center for Advancing Translational Sciences (NCATS), 2019)
